Out of some 270,000 compounds screened, about 620 (0.23%) were called active. The shares of active, inactive and inconclusive entries below differ from those in the screen. Calls follow the shape of the dose curve; as a rule, active = well fitted inhibition curve with a large enough effect in the polarisation, with a control signal flat (not every such curve was filed as active); inconclusive = small, poorly fitted or top-dose-only effect, or effect the other way, or a change in a side signal; inactive = no such curve, though single readings can be large or run the other way; the % refers to the polarisation. Potencies of inconclusive entries are doubtful fits and often do not repeat. “Side channel” marks fits to a control or component signal instead of the main read-out.
biological target: Menin (Homo sapiens) (UniProt O00255); assay: qHTS Assay for Inhibitors Targeting the Menin-MLL Interaction in MLL Related Leukemias: Competition With Texas Red Labeled MLL-derived Mutant Peptide; conditions: fluorescence polarization; FP activity change, negative = inhibition: at 61.6 µM (top of the series); as to FP activity change, negative = inhibition: % of control where 0% means no effect
UniProt O00255, sequence (O00255 whole entry, looked up): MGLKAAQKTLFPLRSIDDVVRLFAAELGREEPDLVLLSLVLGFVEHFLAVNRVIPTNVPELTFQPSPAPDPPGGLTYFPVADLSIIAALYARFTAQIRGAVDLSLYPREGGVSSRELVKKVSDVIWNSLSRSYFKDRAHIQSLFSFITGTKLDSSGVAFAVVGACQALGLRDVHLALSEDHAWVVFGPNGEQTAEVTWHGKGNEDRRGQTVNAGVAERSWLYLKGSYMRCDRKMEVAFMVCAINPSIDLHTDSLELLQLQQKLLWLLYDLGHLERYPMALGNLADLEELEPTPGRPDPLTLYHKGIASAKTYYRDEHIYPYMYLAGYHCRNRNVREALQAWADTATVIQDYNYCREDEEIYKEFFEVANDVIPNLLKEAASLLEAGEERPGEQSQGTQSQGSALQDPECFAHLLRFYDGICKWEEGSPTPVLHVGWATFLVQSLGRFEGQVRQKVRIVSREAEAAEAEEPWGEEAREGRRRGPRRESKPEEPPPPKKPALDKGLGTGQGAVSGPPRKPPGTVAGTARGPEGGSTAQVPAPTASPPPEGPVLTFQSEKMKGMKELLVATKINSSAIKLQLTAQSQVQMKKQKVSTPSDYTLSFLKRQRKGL
Potency is read from the fitted curve at half-maximal effect; tags tell the direction and shape of the fitted curve or compound fluorescence and quenching.

Potency, inconclusive:
O=C(Nn1c(O)c(C=C2N=c3ccccc3=N2)sc1=S)c1ccccc1 22.4 µM [quencher, side channel, partial curve]
CCOc1cc(/C=N/O)cc(Br)c1OCc1ccc(Cl)cc1 11.2 µM [quencher, side channel, partial curve]
Cc1ccccc1-c1nn2c(-c3ccccc3)nnc2s1 10 µM [inhibitor, partial curve]
Cc1c(Cc2ccccc2)c(=O)oc2cc(OCC(=O)NCc3ccccn3)ccc12 3.98 µM [inhibitor, single point]
COc1ccc(OC)c(NC(=O)C(=O)/C=C(\O)c2cc(OC)ccc2OC)c1 35.5 µM [quencher, side channel, single point]
CCOc1ccc(NS(=O)(=O)c2cc(NC(=O)c3cccc(C)c3)ccc2Cl)cc1 22.4 µM [inhibitor, partial curve]
COC(=O)CNc1nc(Cl)nc(Nc2ccc(Cl)cc2)n1 31.6 µM [inhibitor, single point]
CCC(C)c1ccccc1NC(=O)CN(C)CCOc1ccc(Cl)cc1 (configuration not stated) 14.1 µM [fluorescent, side channel, partial curve]
COc1ccc(CCNC(=O)CN2CCN(c3cccc(C(F)(F)F)c3)CC2)cc1 17.8 µM [fluorescent, side channel, partial curve]
CCn1cc(C(=O)NN)c(=O)c2cc(F)c(N3CCOCC3)cc21 12.6 µM [inhibitor, partial curve, poor fit]
O=C(Nc1ccc(Cc2ccc(NC(=O)C3CC3)c(O)c2)cc1O)C1CC1 28.2 µM [quencher, side channel, single point]
Cc1[nH]n(-c2ccccc2)c(=O)c1N=Nc1ccc2c(c1)OCCO2 14.1 µM [quencher, side channel, partial curve]
Cc1cc(N2CCN(C(=O)c3ccco3)CC2)n2nc(C)c(-c3ccccc3)c2n1 2.82 µM [fluorescent, side channel, full curve, poor fit]
C#CCOCCOCCOCCNc1nc(N2CCN(C(=O)[C@H](Cc3cc4ccccc4[nH]3)n3cc([C@@H](N)C(C)CC)nn3)CC2)nc(N2CCN(C(=O)[C@H](Cc3cc4ccccc4[nH]3)n3cc([C@@H](N)CC(C)C)nn3)CC2)n1 (some centres not stated) 2.82 µM [fluorescent, side channel, full curve, poor fit]
NC(=O)c1ccc(Oc2cccc3cccnc23)c([N+](=O)[O-])c1 39.8 µM [quencher, side channel, single point]
COc1ccc2nc(NC(=O)c3ccccc3[N+](=O)[O-])sc2c1 28.2 µM [quencher, side channel, partial curve]
O=C(c1cc(-c2ccncc2)nc2ccc(Br)cc12)N1CCN(c2ccccn2)CC1 25.1 µM [inhibitor, single point]
COc1ccc(N2CC(C(=O)N/N=C/c3cc([N+](=O)[O-])ccc3O)CC2=O)cc1 (configuration not stated) 12.6 µM [quencher, side channel, partial curve]
CCSC1=NC(=O)/C(=C2/C=Cc3ccccc3N2CC)S1 7.94 µM [quencher, side channel, partial curve]
COC(=O)c1[nH]c2ccc(Br)cc2c1NC(=O)Oc1ccccc1 35.5 µM [quencher, single point]
COc1ccc(/C=C/C(=O)NC(=S)NNC(=O)c2c(-c3ccccc3)noc2C)cc1 22.4 µM [quencher, side channel, partial curve]
Cc1cc(C)nc(N(C#N)Cc2ccccc2C)n1 7.94 µM [inhibitor, full curve, poor fit]
N/C(=N\OC(=O)c1ccc2c(c1)OCO2)c1cccc([N+](=O)[O-])c1 31.6 µM [quencher, side channel, single point]
COC(=O)c1sccc1NC(=O)C1CC=CCC1C(=O)O (configuration not stated) 28.2 µM [quencher, side channel, single point]
CCn1c(SCC(=O)Nc2cc(C)on2)nnc1-c1ccc(S(=O)(=O)N2CCCC2)cc1 39.8 µM [inhibitor, single point]
Cc1ccccc1C(=O)N1c2ccccc2OCC1C(C)(C)C (configuration not stated) 10 µM [inhibitor, partial curve]
O=C1S/C(=C\c2ccc(N3CCOCC3)o2)C(=O)N1Cc1ccc(F)cc1 7.94 µM [quencher, side channel, partial curve]
O=C(N/N=C/c1ccc(O)c([N+](=O)[O-])c1)C1CC1(c1ccccc1)c1ccccc1 (configuration not stated) 20 µM [quencher, side channel, partial curve]
Cc1ccc(C(=O)CN2/C(=C(\O)c3ccccc3)C(=O)c3ccccc3S2(=O)=O)c(C)c1 28.2 µM [quencher, side channel, partial curve]
c1ccc(CCn2c(SCc3ccccc3)nnc2-c2ccncc2)cc1 39.8 µM [inhibitor, single point]
Cc1ccc(CC(=O)NCc2ccc(Cl)cc2)cc1 20 µM [inhibitor, partial curve]
Cc1ccc(/C=C\c2nccc3c2[nH]c2ccccc23)cc1 17.8 µM [quencher, side channel, partial curve]
COc1ccc(N=c2oc3cc(O)ccc3cc2C(=O)NCC2CCCO2)c(OC)c1 (configuration not stated) 20 µM [quencher, side channel, partial curve]
Cc1c(C)n(Cc2ccccc2)c2ncnc(Cl)c12 31.6 µM [fluorescent, side channel, single point]
C=CCn1c(COc2ccccc2F)nnc1SCCN1C(=O)c2ccccc2C1=O 14.1 µM [fluorescent, side channel, partial curve]
Cc1ccc(C(NC(=O)C(C)C)c2cc([N+](=O)[O-])c3cccnc3c2O)cc1 (configuration not stated) 31.6 µM [quencher, side channel, single point]
COc1cc(CNCc2ccccn2)ccc1OCc1ccc(Cl)cc1Cl 14.1 µM [fluorescent, side channel, partial curve]
Oc1ccc(Br)cc1CNc1cccc2cccnc12 17.8 µM [quencher, side channel, partial curve]
CCC(=O)OCCNc1nc(-c2ccccc2)nc2ccccc12 7.08 µM [quencher, side channel, partial curve]
CC(CN1CCOCC1)OC(=O)/C=C/c1ccccc1 (configuration not stated) 0.794 µM [inhibitor, full curve, poor fit]
Cc1ccccc1-c1nnn(CC(=O)Nc2ccc3c(c2)OCCO3)n1 4.47 µM [quencher, side channel, single point]
Oc1ccc(/C(Cc2ccccn2)=N\Nc2ccccc2)c(O)c1 39.8 µM [quencher, side channel, single point]
Cc1csc(NC(=S)Nc2cccc(Cl)c2)n1 22.4 µM [quencher, side channel, single point]
Cc1ccc(NC2=C/C(=N/S(=O)(=O)c3cccs3)c3ccccc3C2=O)cc1 28.2 µM [quencher, side channel, partial curve]
O=C(c1ccc(S(=O)(=O)N2CCCCC2)cc1)N1CCc2ccccc2C1 14.1 µM [fluorescent, side channel, partial curve]
CCC(C)N(CCNC(=O)c1ccc(NC2=NC3CS(=O)(=O)CC3S2)cc1)Cc1ccco1 (configuration not stated) 7.94 µM [inhibitor, full curve, poor fit]
CCOC(=O)c1c(NC(=S)Nc2cccc(C)c2)sc2c1CC(C)(C)SC2 7.08 µM [quencher, side channel, partial curve]
COc1ccc2nc(Nc3ccccc3)sc2c1 25.1 µM [quencher, side channel, partial curve]
CNc1c(NS(=O)(=O)c2ccc(Cl)cc2)c(=O)oc2ccccc12 39.8 µM [fluorescent, side channel, single point]

Potency, inactive:
CCC(CC)COC(=O)C1=C(C)NC(=O)NC1c1ccc([N+](=O)[O-])cc1 (configuration not stated)
O=C1CCCC=C1[C@@H](O)CCOC(c1ccccc1)(c1ccccc1)c1ccccc1
CCOc1ccccc1N(C(=O)c1snc(C(N)=O)c1N)C(CC)C(=O)NC1CCCC1 (configuration not stated)
COCCCNC(=O)c1ccccc1Oc1ccccc1
C=CCc1cc(/C=N\NC(=O)CSc2nnc(CCCc3ccc(OC)c(C)c3)o2)cc(OC)c1O
COc1ccc(/C=N/NC(=O)Cc2ccc(Cl)cc2)cc1OC
COCCNc1nc2c(c(=O)n(Cc3ccccc3F)c(=O)n2C)n1C

FP activity change, negative = inhibition, inactive:
COc1cccc(OCc2nc3ccccc3[nH]2)c1 -3.17% [at 11.7 µM]

Source: PubChem BioAssay AID1768 (National Center for Advancing Translational Sciences (NCATS), 2009)
